Assay results published in PMC4336329 (PLoS ONE, 2015).
The campaign covered roughly 310,000 compounds. About 14,000 (4.5%) showed an effect of 50% or more. The effect is printed as a negative number. The list shows a part of the results.

target: human ether-à-go-go-related gene (hERG) potassium channel (human, UniProt Q12809); assay: primary screen, population patch clamp on CHO cells stably expressing hERG
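Further: peak tail current of the secondary pulse compared with the same well before compound.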

human ether-à-go-go-related gene (hERG) potassium channel, sequence (Q12809 whole entry, looked up): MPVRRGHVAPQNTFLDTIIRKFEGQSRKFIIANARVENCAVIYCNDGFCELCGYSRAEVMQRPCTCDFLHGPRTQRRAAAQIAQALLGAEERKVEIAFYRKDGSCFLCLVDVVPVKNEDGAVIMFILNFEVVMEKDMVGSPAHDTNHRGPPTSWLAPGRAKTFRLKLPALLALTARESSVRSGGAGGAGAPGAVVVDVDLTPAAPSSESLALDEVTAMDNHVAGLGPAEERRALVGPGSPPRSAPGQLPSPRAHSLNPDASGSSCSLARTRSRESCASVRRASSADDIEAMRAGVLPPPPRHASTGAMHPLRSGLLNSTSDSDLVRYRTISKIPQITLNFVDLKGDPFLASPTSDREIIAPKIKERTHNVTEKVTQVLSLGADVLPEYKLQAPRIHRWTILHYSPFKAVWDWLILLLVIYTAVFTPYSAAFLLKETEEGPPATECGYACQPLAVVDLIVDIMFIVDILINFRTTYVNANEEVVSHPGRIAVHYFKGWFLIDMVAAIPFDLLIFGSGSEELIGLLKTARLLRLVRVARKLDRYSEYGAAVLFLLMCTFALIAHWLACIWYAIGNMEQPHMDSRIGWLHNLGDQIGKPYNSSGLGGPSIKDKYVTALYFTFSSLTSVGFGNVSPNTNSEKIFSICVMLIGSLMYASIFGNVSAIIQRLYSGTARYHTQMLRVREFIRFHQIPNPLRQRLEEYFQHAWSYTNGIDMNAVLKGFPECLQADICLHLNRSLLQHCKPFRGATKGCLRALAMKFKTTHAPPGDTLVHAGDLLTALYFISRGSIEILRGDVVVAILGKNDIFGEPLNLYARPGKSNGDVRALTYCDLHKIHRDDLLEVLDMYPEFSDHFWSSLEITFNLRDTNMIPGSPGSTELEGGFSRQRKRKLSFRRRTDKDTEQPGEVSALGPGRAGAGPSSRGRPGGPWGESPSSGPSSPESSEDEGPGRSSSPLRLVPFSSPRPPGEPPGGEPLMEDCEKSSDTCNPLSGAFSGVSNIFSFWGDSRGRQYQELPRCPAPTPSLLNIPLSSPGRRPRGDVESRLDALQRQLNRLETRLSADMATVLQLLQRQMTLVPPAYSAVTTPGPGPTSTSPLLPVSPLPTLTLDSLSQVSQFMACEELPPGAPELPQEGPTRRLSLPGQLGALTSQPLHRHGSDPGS

SMILES | hERG current change (%, negative = inhibition) at 10uM
CCOC(=O)c1ccc(S(=O)(=O)N2CCN(c3ccccn3)CC2)cc1 | 8.95%
CC1CCCCC1NC(=O)C1CCC(CNS(=O)(=O)c2ccccc2)CC1 (centres unmarked) | 11.8%
S=C(NCc1ccco1)Nc1ccccc1 | 15.1%
COc1ccc(OC)c(NC(=O)CNC(=O)Cn2cnc3sc(C)cc3c2=O)c1 | 5.14%
Cc1cccc(N2CCN(C(=O)CCCn3c(=S)[nH]c4cc5c(cc4c3=O)OCO5)CC2)c1C | 12%
O=C(O)C(Cc1c[nH]c2ccccc12)N1Cc2ccccc2C1=O (centres unmarked) | 9.24%
Clc1nc(-c2n[nH]nc2Cl)n[nH]1 | 0.0636%
NS(=O)(=O)OCc1ccc(C(F)(F)F)cc1 | 1.9%
Cc1cccc(NC(=S)N2CCCC2)c1 | 11.1%
CC(=O)c1cnc(SCCN2C(=O)c3ccccc3C2=O)nc1C | -2.37%
COc1cccc(-c2nnc(NC(=O)c3ccc4ncsc4c3)o2)c1 | -8.13%
O=C(COC(=O)c1c(F)cccc1F)Nc1ccccc1OC(F)F | 17.3%
O=C(COc1c(Cl)cccc1Cl)Nc1ccccc1N1CCCC1 | 1.77%
Cc1ccc(S(=O)(=O)N(C)C)cc1NC(=O)/C=C/c1cccs1 | -8.78%
O=C(Nc1ccccc1N1CCCCC1)c1ncoc1-c1ccc(F)cc1 | 5.73%
O=c1[nH]c(=O)n(Cc2ccco2)c(O)c1C=NC1CC1 | 9.35%
COc1ccccc1CNC(=O)c1nn(C)c2c1CS(=O)(=O)c1ccccc1-2 | 7.21%
CC(C)N(Cc1ccccc1)C(=O)Cn1c(=O)cnc2ccccc21 | -24.6%
Cc1nnc(NC(=O)c2ccc(Br)o2)s1 | 18.7%
COc1ccc(/C=C2\SC(=S)N(CCC(=O)NCCCn3ccnc3)C2=O)cc1 | -28.5%
COc1ccc2[nH]c(C(=O)Nc3ccc4c(c3)OCO4)cc2c1 | 10.6%
Cl.O=C(CN1CCCCC1)c1ccc2c(c1)OCO2 | -4.7%
COc1cc2nc3occc3c(OC)c2cc1OC | -9.31%

SMILES | hERG current change (%, negative = inhibition) at 10uM
Cc1cc(=O)n2[nH]c(N)c(N=Nc3ccccc3)c2n1 | -2.95%
O=C(c1cc(-c2ccccc2Cl)nc2ccccc12)N1CCOCC1 | -6.68%
COC(=O)N/N=C/c1ccc(OS(=O)(=O)c2ccc(C)cc2)c(OC)c1 | -17.2%
COc1ccc(N/C=C\C(=O)c2ccc3ccccc3c2)cc1 | 14.3%
CN1C(=O)c2cccc3c(N)ccc(c23)C1=O | 7.03%
CCCOc1ccccc1N/C(=N/c1nc(C)cc(C)n1)NC(=O)Nc1ccc(Cl)cc1 | -1.32%
CCN(CC)c1nc(C)nc2c1sc(=S)n2C | -1.82%
O=C(CC1CCCC1)N1CCCC(Nc2ccc(F)cc2)C1 (centres unmarked) | 2.02%
Cc1nc(SCC(=O)NCC2CCCO2)c2c3c(sc2n1)CCC3 (centres unmarked) | -26.7%
O=C(CCN1C(=O)/C(=C/c2cccs2)SC1=S)Nc1cccc(C(=O)O)c1 | 22.7%
CCC1CCCCN1Cc1ccc(N)cc1 (centres unmarked) | -1.13%
CCOC(=O)C1=C(COC(=O)CCOc2cc(C)ccc2C)NC(=O)NC1C (centres unmarked) | -26.5%
CCn1c(O)c(C=Nc2ccccc2)n(-c2ccccc2)c1=S | 4.53%
COc1cc(/C=N/NC(=O)CCN2CCCCC2)ccc1O | -12%
CCOC(=O)C1CCCN(S(=O)(=O)Cc2ccc(Cl)cc2)C1 (centres unmarked) | -5.86%
Cc1nn(-c2ccccc2)c(C)c1/C=N/NC(=O)c1cc(C2CC2)[nH]n1 | -6.3%
Cc1ccc(S(=O)(=O)NCCc2nc3ccccc3[nH]2)cc1 | 12.9%
Cc1cccc(Cn2cc(/C=C/[N+](=O)[O-])c3ccccc32)c1 | -12.2%
CCCN(CC1CC1)c1nc(N)c(C#N)c(CC#N)c1C#N | -0.666%
O=C(c1ccc2c3n(nc2c1)-c1ccc(Cl)cc1CO3)N1CCCCC1 | -15.1%
Cc1occc1-c1nnc(SCC(=O)Nc2ccccc2)n1Cc1ccccc1 | -76.3%
Cc1ccc(C(=O)NNC(=O)c2ccc3c(c2)OCCO3)cc1 | -7.92%
CCN1CCN(C(=S)Nc2cccc(C(F)(F)F)c2)CC1 | -7.79%

SMILES | hERG current change (%, negative = inhibition) at 10uM
O=C(CC(=O)N/N=C/c1ccc(Cl)cc1Cl)NCc1ccccc1 | -4.37%
Cn1cccc1C(=O)NCc1ccc(Cl)cc1 | 0.265%
CN1C(=O)NC(c2ccc(O)cc2)C2=C1CN(c1ccccc1)C2=O (centres unmarked) | -11.9%
CCCN(CCC)CCNC(=O)C1c2ccccc2C(=O)N2CCc3ccccc3C12 (centres unmarked) | -11%
CCOC(=O)c1sc(NC(=O)c2cc(-c3ccccc3)nc3ccccc23)c(C#N)c1C | 20.6%
CCOC(=O)N1CCN(C(=O)c2ccc3nc(SCc4ccc(F)cc4)n(C)c3c2)CC1 | -45.5%
COc1cc(C(=O)NCC2CCCCC2)cc(OC)c1OC | -67.3%
COc1cccc(/C=N/NC(=O)c2[nH]c(C)c(C(=O)N/N=C/c3cccc(OC)c3O)c2C)c1O | 11.7%
CNC(=O)c1ccc(NC(=O)Cc2ccc(S(=O)(=O)N3CCOCC3)s2)cc1 | 13.2%
Cc1csc2ncnc(NC3CCN(Cc4ccccc4)CC3)c12 | -65.5%
Cc1nc(C)c(-c2ccc(SCC(=O)Nc3cccc(F)c3)nn2)s1 | 8.66%
Cc1ccc(S(=O)(=O)/N=C(/Nc2cccc3ccccc23)c2ccc(F)cc2)cc1 | -12.4%
CC(=O)Nc1c(C(=O)N2CCCCCC2)cnn1-c1ccccc1Cl | 6.47%
CCCCOc1ccc(CC(=O)NCC(=O)O)cc1 | 6.54%
CCOC(=O)c1c(NC(=O)Cn2cc([N+](=O)[O-])cn2)sc2c1CCC2 | -11.6%
CCCN(CC(=O)Nc1ccccc1C)C(=O)c1ccc(N2CCCC2=O)cc1 | -4.11%
Cc1ccnc(NC(=O)c2ccc(S(=O)(=O)N3CCC(C)CC3)cc2)c1 | -5.75%
O=C(c1cc(Sc2cccc(Cl)c2)nc2ccccc12)N1CCN(c2ccccn2)CC1 | -10.7%
O=C(CCN1CCCCC1)N=Nc1c(O)[nH]c2ccccc12 | 11.3%
COc1ccc(-c2nnn(CC(=O)NC3CCCc4ccccc43)n2)cc1OC (centres unmarked) | 8.26%
NNC(=O)C=C1CCN(c2ncc(C(F)(F)F)cc2Cl)CC1 | 4.01%
O=C(Nc1nnc(-c2ccccc2)o1)c1cccc(N2C(=O)CCC2=O)c1 | 9.91%
CC1CCCN(CCCNC(=O)c2ccc(NC(=O)C3=CSCCO3)cc2)C1 (centres unmarked) | 2.91%

SMILES | hERG current change (%, negative = inhibition) at 10uM
CCCC(C)NC(=O)c1cc(S(=O)(=O)N2CCCCCC2)ccc1OC (centres unmarked) | -54.4%
C/C(=N\Nc1cc(C(F)(F)F)ccc1Cl)c1ccncc1 | 13.7%
CN(C)c1ccc(/C=C2\SC(=S)N(Nc3ncc(C(F)(F)F)cc3Cl)C2=O)cc1 | -19.9%
O=C(Nc1ccncc1)C1CCN(S(=O)(=O)c2ccccc2)CC1 | 3.04%
CCn1c(SC/C=C/c2ccccc2)nnc1-c1cccs1 | -66.3%
CCOC(=O)C1CCCN(S(=O)(=O)c2ccc3ccccc3c2)C1 (centres unmarked) | -29.8%
O=C(CSc1cccc[n+]1[O-])c1ccc(Cl)cc1 | -21.8%
O=C(O)CNS(=O)(=O)c1ccc2[nH]c(=O)c(=O)[nH]c2c1 | 17.7%
CCN1CCN(C(c2cccs2)C(C)NC(=O)C(C)C)CC1 (centres unmarked) | 9.03%
C=CCN=C(SCC(=O)c1ccc(Cl)cc1)c1c(O)n(C)c(=O)n(C)c1=O | -9.99%
O=C(CS(=O)(=O)c1ccccc1)Nc1nnc(C(F)(F)F)s1 | 23.3%
O=C(NC(Cc1ccccc1)c1ccc2c(c1)OCCCO2)c1ccc(F)cc1 (centres unmarked) | 8.05%
O=C(CCc1ccccc1)Nc1ccc(S(=O)(=O)N2CCOCC2)cc1 | -28.1%
Cc1cccc(Nc2nc(C)cc(C)c2C#N)c1 | 11.1%
CN(C)S(=O)(=O)c1cc(NC2CC(=O)N(c3ccc(F)cc3)C2=O)ccc1Cl (centres unmarked) | -51.1%
O=c1c2ccccc2nc(CNc2ccccc2)n1-c1ccccc1 | 16.4%
O=C(CSc1cc(Cl)ccc1Cl)NC1CCCC1 | 1.73%
O=C1CCC(C(=O)N2CCSCC2)CN1Cc1ccc(Cl)cc1 (centres unmarked) | -5.13%
Cc1ccc(NC(=O)c2ccc(C)c(S(=O)(=O)N3CCCCC3)c2)nc1 | -23%
CC(=O)c1cc(C(C)=O)c(C)nc1C | 15.9%
CC(c1ccccc1)N(C)C(=O)CSc1nnc(C2CC2)n1C1CC1 (centres unmarked) | -2.75%
CCc1ccc(C(=O)NNc2cc(Cl)ccc2Cl)cc1 | 8.65%
COC(=O)CSc1nnc(CNC(=O)c2cc(OC)c(OC)c(OC)c2)n1C | -0.781%
